Test results published in the supplement of paper PMC3334620.
The full ranking holds about 33,000 sequences; the median of “E-score (-0.5 to 0.5)” is about -0.016, and the highest 2% start at about 0.32. The list shows a part of the results.

Molecular target: T1, Stp1 (UniProt B3LFK1)
T1 sequence: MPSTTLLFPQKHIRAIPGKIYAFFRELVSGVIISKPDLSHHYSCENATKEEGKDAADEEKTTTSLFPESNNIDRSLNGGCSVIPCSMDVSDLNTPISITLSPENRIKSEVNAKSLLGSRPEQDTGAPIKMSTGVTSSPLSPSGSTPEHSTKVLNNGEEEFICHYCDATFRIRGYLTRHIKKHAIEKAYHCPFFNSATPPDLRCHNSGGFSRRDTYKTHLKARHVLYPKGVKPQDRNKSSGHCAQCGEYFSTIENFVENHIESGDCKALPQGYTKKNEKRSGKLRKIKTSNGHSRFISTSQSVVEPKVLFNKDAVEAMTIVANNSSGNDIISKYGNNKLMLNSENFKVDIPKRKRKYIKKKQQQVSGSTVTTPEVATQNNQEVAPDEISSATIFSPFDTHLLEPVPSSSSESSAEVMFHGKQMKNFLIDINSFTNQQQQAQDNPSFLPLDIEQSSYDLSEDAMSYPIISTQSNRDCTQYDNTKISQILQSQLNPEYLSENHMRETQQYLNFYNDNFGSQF
Assay: PBM E-score (8-mer binding enrichment) (E-score (-0.5 to 0.5)); higher = stronger / more preferred TF binding; most listed sequences are background and not binding sites
Settings: protein concentration: 200 nM; construct: GST-full length
Procedure, shortened: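 Full-length yeast transcription factors or their DNA-binding domains, GST-tagged and expressed with PURExpress, were applied at about 100-200 nM to universal all-10-mer Agilent arrays. These arrays had been made double-stranded by primer extension on fresh or once-stripped slides. Detection used fluorescent anti-GST, normalisation used masliner, and E-scores for ungapped eight-base words pooled with reverse complements came from the Universal PBM Analysis Suite.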

Sequence	PBM E-score
GTAGTCAC	-0.127
AGAGCTAG	-0.129
ATACGATC	0.0718
CCGTTCCC	0.181
GAGCAGCA	0.00186
ACAGCAAT	0.178
AAAGAATC	0.0141
GATCTGCC	-0.143
ACCGCCGT	0.449
GCGTAGCA	-0.0278
TAACCCTA	-0.181
GACCGGGC	-0.267
CGAGACTC	-0.304
GAGGTCGC	-0.179
CTAAGTAG	0.0172
AGAATACC	0.08
AGTACCGG	-0.231
AGTGGCCA	-0.163
CATGCATG	0.0957
AACTCATT	-0.242
TAGTTTAA	0.0359
ATTATGTC	0.0735
GGGCAGGA	-0.17
AAGCTTCC	-0.231
TGTAGCAA	-0.0432

Sequence	PBM E-score
GCTCACCA	-0.249
CTGTAGCC	0.041
GCCCATAA	-0.0177
CGCTTACA	0.0771
GAATCGAC	-0.0272
CTAACCTA	-0.0909
GAGACTGA	-0.0955
AATTACCA	0.146
AAAAGTGT	0.0382
GGGACGTA	-0.164
CAACATGG	0.0104
ATGGCACG	0.354
ACCCTGCA	-0.0103
ATAGATTC	0.042
AACGATTA	-0.0188
ATCGGCGA	0.0557
ATACGTAT	0.186
CTTGGGCA	-0.0164
GCTCCCCA	-0.407
AGACGAGA	-0.112
ATAGATCC	0.0305
ACTGACAT	-0.0444
GGCTAAAA	0.088
CCTCTAAC	-0.0799
ATTTTACG	0.299

Sequence	PBM E-score
CGAATGAG	0.179
AACTTTAT	0.0488
CAGTAATC	0.0108
AGACAAAG	0.00552
ACGATCCA	-0.0345
GCCATGTA	-0.0112
TAATAACA	0.145
GATAGTCC	-0.271
AACGATAC	-0.121
GCCGAAAC	-0.0114
GCATCGCA	-0.149
AATTAGAT	0.104
AAGGTTGG	-0.0584
GATTGAGA	0.133
GTATTGGA	-0.067
AAGCTACG	0.0193
CTTAGTCA	-0.144
CCACTCCG	-0.115
CCTAAGAA	-0.057
GTCCCCCA	-0.318
ACCGGATC	-0.177
GGACAAGA	-0.0443
ATATTCAA	0.253
CCACGTAA	0.111
GCAATGCC	0.261

Sequence	PBM E-score
CTACACAC	0.0156
CCCGTAGC	-0.24
AATAAGCG	0.0513
GACGGGGC	0.143
CAACGTTA	0.0372
AATTCACA	0.104
CCTAGGCG	-0.0358
TTACTAAA	0.246
GTATTCCA	-0.0347
CGAAGTGC	0.245
ATACTATG	0.197
ACATGCTG	-0.0883
ATTACTAA	0.199
GGGGGCCA	-0.303
ACCCATTC	-0.0381
CGTGCAGC	0.184
ATAATGGA	0.0869
AATAAAAC	0.192
GGCAAGTA	0.11
GTCAGAAA	-0.00292
ACACAACC	0.132
CATGATTC	-0.215
CTAAGTTC	-0.112
AACATATA	0.156
AGGGCTGG	-0.176

Sequence	PBM E-score
CGGGGGGA	-0.386
GACCCGTC	-0.249
AGAGTTCA	-0.282
CATTTGGA	0.115
CAAGCAAG	-0.0234
AATGTTAA	0.0126
ACTGCGAT	-0.113
AGACCGCA	-0.132
CACCGACC	-0.127
AATGTCTA	0.0557
TTGCAAAA	0.128
GGAGATCC	-0.143
GCTTCCCC	-0.261
ATCAACCC	-0.0253
AGGCGCGA	0.392
TCAAGGGA	0.0279
ATTACCGC	0.13
GTCACTAA	0.055
CCTGGCAA	-0.168
GGCCTCGA	-0.206
AGCTCCAA	-0.0391
CTCGGAGC	-0.0174
AACCTACT	-0.156
CAAAAAGA	-0.0676
CGTTAGGC	0.181

Sequence	PBM E-score
CTACGACA	0.0518
CCCGCCAG	-0.164
ACCCAGAG	-0.146
CATTTCCG	0.0702
ACCCCACA	-0.171
AAGGGTGC	-0.016
TAGTCTCA	-0.026
CGTGCTAG	-0.209
GAGGCGTA	0.278
AACTATAT	0.14
AGTAGCTG	-0.345
GCGATTAA	0.219
CAGTCCCG	-0.23
CGTGTCAA	0.0772
GAACTAAA	0.172
AGCTTGAA	-0.128
TCAGACCA	-0.188
AAGATTTC	-0.00965
ACCATTTG	0.0694
ATCATCTG	0.028
CAAGTTAC	-0.0183
GGAGCGCA	-0.232
CCTTTCAG	-0.0336
CCTTATGA	0.11
ACTTCTCA	-0.162

Sequence	PBM E-score
GACAGTGC	-0.00443
CGTGAGCA	-0.00304
CAATACCG	-0.127
CGAGGAAG	-0.158
GAAGGATC	-0.204
ACCACGTA	-0.0141
AGTGCGTA	-0.129
CGCGACAC	0.0465
GGACAGAC	-0.062
ATAGGCGG	0.114
GTTTGGAA	0.0964
CGCTTCCA	0.0266
ATTTTACC	0.19
AAATGCGG	0.242
CACCACCA	0.00098
CCTTAACG	0.0269
ACATGCGT	-0.224
CGCTTACC	0.0966
GCCACATA	0.217
ACAATGTG	0.0862
GTTTGAAA	0.153
AAAATGAA	0.0576
